Assay results: PubChem BioAssay AID1508623 (National Center for Advancing Translational Sciences (NCATS), 2021)
Hit rate of the full screen: of about 48,000 compounds, about 450 (0.94%) were called active. Roughly 19% stayed inconclusive and do not appear here. Calls come from the whole dose curve; as a rule, active = well fitted inhibition curve with a large enough effect; inconclusive = small, poorly fitted or top-dose-only effect; inactive = no such curve, though single readings can be large or run the other way. The list shows a part of the results.

Assay: Primary qHTS for Identification of Small Molecule Inhibitors of Huntingtin Promoter Activity; note: nearly all actives have a fitted effect of over 50% in size
Conditions: HEK293 HTT promoter firefly luciferase reporter (activity 0% = vehicle and -100% = no light), 24 h; series mostly up to 57.5 µM; activity change, negative = inhibition: at the top concentration
Method in brief: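 Firefly luciferase readout (Dual-Glo, 10 min RT) after 24 h, 37 °C compound exposure (final up to 57.5 uM) of HEK293 reporter cells cultured 24 h beforehand; PTC124 at 50 uM final as control inhibitor; activity scaled vehicle 0%, zero RLU -100%.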

Structure (SMILES) | activity change, negative = inhibition
COc1cccc2c1cc1c(=O)n(CC(=O)N3CCCCC3)nc(C)n12 | inactive: -0.359%
Cc1ccc(C(=O)Nc2ccc(C(=O)O)cc2)cc1S(=O)(=O)Nc1ccccc1 | inactive: 19.2%
Cc1ccc(-n2c3c(c(=O)[nH]c2=O)C(NS(=O)(=O)c2ccc(Cl)cc2)(C(F)(F)F)C(=O)N3)cc1 (configuration not stated) | inactive: -15.4%
O=c1c2oc3ccccc3c2n(Cc2ccc(Cl)cc2)c(=O)n1Cc1ccc2c(c1)OCO2 | inactive: -29%
Fc1cccc(NCc2ccccc2-c2nnc(-c3ccccc3Cl)o2)c1 | inactive: 81.8%
COCCNC(=O)CSc1nc2cc3c(cc2c(=O)n1CCCC(=O)NCCc1ccc(OC)c(OC)c1)OCO3 | inactive: -11.5%
CCC(C)(C)NC(=O)C1CCC(CNS(=O)(=O)c2ccc3c(c2)CC(C)N3C(C)=O)CC1 (configuration not stated) | inactive: -15%
CCCCNC(=O)CCCN1C(=O)CCn2nc(-c3cccn3C)cc21 | inactive: -23.3%
CCOCCCNC(=O)CN1C(=O)c2cccnc2Sc2ccccc21 | inactive: -4.45%
Cc1ccc(Cl)cc1N1CCN(C2(c3ccccc3)C(=O)c3ccccc3C2=O)CC1 | inactive: -14.6%
CCN(CC)CCn1c(=O)c(Cc2ccc(OC)cc2)nc2ccccc21 | inactive: -2.11%
Fc1ccccc1N1CCN(c2nnc(C(F)(F)F)c3nnn(Cc4ccccc4)c23)CC1 | inactive: 0.701%
O=C(Cn1c(SCCOc2ccccc2Cl)nc2ccccc21)N1CCOCC1 | inactive: -5.68%
COc1ccc2c(CNCc3ccco3)c(C(=O)O)n(Cc3ccc(F)cc3Cl)c2c1 | inactive: -11%
COc1ccc(CCNc2ncnc3c2nnn3C)cc1OC | inactive: -26.2%
CCc1ccc(NC(=O)CSc2nc(-c3ccccc3)no2)cc1 | inactive: 21.3%
COc1ccccc1Cn1ccn(CC(=O)Nc2c(C)cc(C)cc2C)c(=O)c1=O | inactive: -25.5%
CC(C)C(=O)NC1CC(=O)N(c2ccc3c(c2)OCCO3)C1 (configuration not stated) | inactive: 12.5%
Cc1nnc(N2CCN(c3ccc(Cl)cc3)CC2)c2c1nnn2Cc1ccc(F)cc1 | inactive: -11.5%
COc1cccc(C(c2sc3nc(-c4ccco4)nn3c2O)N2CCCC2)c1 (configuration not stated) | inactive: 16.5%
COc1ccc(NC(=O)c2c(NCc3cccs3)sc3c2CCCCC3)cc1 | inactive: 7.79%
Cc1c(C(=O)Nc2cccc(F)c2)sc2nc(-c3cc4ccccc4oc3=O)[nH]c(=O)c12 | inactive: 0.0638%
Cc1ccc(-n2nc(C)c3c(C)cc(=O)n(CC(=O)Nc4ccc(C(C)C)cc4)c32)cc1 | inactive: -7.95%
CCc1ccc(NC(=O)C(=O)NCCc2sc(-c3ccc(OC)c(OC)c3)nc2C)cc1 | inactive: 4.33%
CC1CCCCN1C(=O)c1ccc2c(c1)N(Cc1ccc(Cl)cc1)C(=O)c1ccccc1S2=O (configuration not stated) | inactive: -33.7%
CCOC(=O)c1[nH]c2ccccc2c1NC(=O)c1c(F)cccc1F | inactive: -3.62%
O=C(NCc1ccccc1Cl)c1ccc2c(c1)N(Cc1ccccc1)C(=O)c1ccccc1S2 | inactive: -12.6%
